Data reported in the BET-seq Pho4 binding data (Le et al. 2018).
The other results are listed elsewhere or left out. The energies were worked out here from pooled read counts, against the library average; single values are noisy.

Target: T1, Pho4 (S. cerevisiae) (UniProt P07270)
T1 sequence: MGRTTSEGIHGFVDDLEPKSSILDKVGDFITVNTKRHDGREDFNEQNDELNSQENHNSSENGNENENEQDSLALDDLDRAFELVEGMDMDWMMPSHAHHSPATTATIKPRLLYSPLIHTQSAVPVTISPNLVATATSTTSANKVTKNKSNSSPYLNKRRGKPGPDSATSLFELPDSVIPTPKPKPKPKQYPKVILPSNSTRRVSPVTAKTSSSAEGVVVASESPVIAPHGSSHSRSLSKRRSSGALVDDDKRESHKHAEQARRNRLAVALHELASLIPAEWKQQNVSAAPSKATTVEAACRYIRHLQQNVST
Assay: relative binding free energy (BET-seq); higher = weaker binding
Conditions: reference: library average

Sequence | relative binding free energy
CTGAGCACGTGGGTGC | -0.27 kcal/mol
AATTCCACGTGAGTTT | 0.32 kcal/mol
AGACGCACGTGTTGGT | -0.1 kcal/mol
TAAGTCACGTGTTATG | 0 kcal/mol
AGAGGCACGTGGGGCT | -0.22 kcal/mol
CGTCTCACGTGGGTAG | -0.02 kcal/mol
GTTAGCACGTGGTGTC | -0.09 kcal/mol
TTAGTCACGTGATGGC | 0.35 kcal/mol
GTAATCACGTGGAGGG | 0.16 kcal/mol
TCATACACGTGATGTG | 0.18 kcal/mol
CGGGGCACGTGGGTCA | -0.43 kcal/mol
CTGTCCACGTGTGGCG | 0.13 kcal/mol
GTGTTCACGTGAGGTA | 0.39 kcal/mol
GTACTCACGTGGTTAT | 0.14 kcal/mol
GTTGACACGTGTTTTG | 0.07 kcal/mol
CTGCTCACGTGGGGTG | 0.01 kcal/mol
GCATGCACGTGGCGGT | -0.19 kcal/mol
GTGATCACGTGGTTGT | 0.16 kcal/mol
ATCGGCACGTGCTTGG | -0.07 kcal/mol
AGTAGCACGTGAAGTA | 0.18 kcal/mol
TGTTTCACGTGCGGGA | 0.17 kcal/mol
AATGTCACGTGGGGTA | -0.09 kcal/mol
TTGATCACGTGGGCAT | -0.09 kcal/mol
ATTCTCACGTGTGTTA | 0.21 kcal/mol
TTGTGCACGTGGCTTA | -0.11 kcal/mol

Sequence | relative binding free energy
CATGGCACGTGTTGGG | -0.01 kcal/mol
ACATTCACGTGTTGGT | 0.22 kcal/mol
AGTTGCACGTGAATGA | 0.02 kcal/mol
TTTAGCACGTGAGTTG | 0.08 kcal/mol
TTCGGCACGTGGAGGT | -0.08 kcal/mol
TGTTACACGTGAATCA | 0.32 kcal/mol
CGAGACACGTGTGGTT | 0.22 kcal/mol
TGGGACACGTGCCGTT | -0.03 kcal/mol
TTCTGCACGTGTCGGT | 0.02 kcal/mol
TTTGTCACGTGGCTCA | -0.03 kcal/mol
CATTGCACGTGCGGGG | -0.04 kcal/mol
ATAATCACGTGGGGTA | 0.09 kcal/mol
TGGGTCACGTGAACAG | 0.23 kcal/mol
TTCGCCACGTGAGTGT | 0.11 kcal/mol
CTGACCACGTGTGGGT | -0.08 kcal/mol
GGACGCACGTGTGTTG | -0.09 kcal/mol
GGTGCCACGTGACGGT | -0.01 kcal/mol
AGTTACACGTGGGTAC | -0.08 kcal/mol
ACGTGCACGTGTGTCG | -0.1 kcal/mol
GGTCACACGTGGGCTG | -0.07 kcal/mol
TGTCCCACGTGGGGGT | -0.38 kcal/mol
GATTTCACGTGTTCGT | 0.48 kcal/mol
TAGTGCACGTGGAAGT | 0.11 kcal/mol
AAACTCACGTGTGTTT | 0.2 kcal/mol
CGTTTCACGTGTGTCG | 0.17 kcal/mol

Sequence | relative binding free energy
AGAATCACGTGGGTGA | 0.21 kcal/mol
CTATGCACGTGTGATT | -0.02 kcal/mol
TTGGCCACGTGGGTCA | -0.22 kcal/mol
GGTTACACGTGAAATT | 0.3 kcal/mol
TTTGACACGTGGGCTT | -0.17 kcal/mol
TCCTGCACGTGTGTTG | 0.03 kcal/mol
TTTGCCACGTGATAAG | 0.17 kcal/mol
GTGTTCACGTGTAGGA | 0.19 kcal/mol
GTTGTCACGTGATGTG | 0.39 kcal/mol
GTTACCACGTGGTGCT | 0.03 kcal/mol
CATGTCACGTGACGGG | 0.18 kcal/mol
AGGTTCACGTGGTGGC | 0.29 kcal/mol
GGGTGCACGTGGGCAT | -0.03 kcal/mol
GGAACCACGTGTGTTG | 0.03 kcal/mol
CTGGACACGTGGAGTT | 0.1 kcal/mol
GCATTCACGTGGGGAT | 0.15 kcal/mol
AGTAGCACGTGAGGTA | 0.27 kcal/mol
ATTTGCACGTGGCCGG | -0.14 kcal/mol
GGTTACACGTGAGTTC | 0.44 kcal/mol
ACTTTCACGTGGCGGG | 0.35 kcal/mol
CGCGGCACGTGCGGGG | -0.09 kcal/mol
ACGGGCACGTGGTTAG | -0.25 kcal/mol
GTTTTCACGTGCAAAG | 0.33 kcal/mol
